# Test results published in PubChem BioAssay AID504832 (National Center for Advancing Translational Sciences (NCATS), 2011).
# The campaign covered roughly 310,000 compounds. About 18,000 (5.8%) were called active. Inconclusive means that the source gave no clear call. Such entries were picked first, then a sample of the others. Calls follow the shape of the dose curve; as a rule, active = well fitted inhibition curve with a large enough effect; inconclusive = small, poorly fitted or top-dose-only effect, or another doubt; inactive = no such curve, though single readings can be large or run the other way. No potency is given beside an inconclusive call; the fits are too rough.
# Assay: Primary qHTS for delayed death inhibitors of the malarial parasite plastid, 48 hour incubation
# Conditions: P. falciparum luciferase growth in erythrocytes; series mostly up to 28.7 µM
# How it was run: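 Luciferase-expressing parasites in RBCs, 2% Hct / 0.1% parasitemia final; RPMI 1640 + 0.5% Albumax; 37 C, 5% CO2, one generation; luminescence read-out, lower signal = inhibition.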
# Potency is read from the fitted curve at half-maximal effect; tags tell the direction and shape of the fitted curve.
row,Structure (SMILES),Potency
1,CCc1cc(CC)c(/C=N/NC(N)=O)c(CC)c1/C=N/NC(N)=O,"inconclusive [inhibitor, full curve, poor fit]"
2,O=[N+]([O-])c1cccc(COc2ncnc3cc([N+](=O)[O-])ccc23)c1,"inconclusive [inhibitor, partial curve]"
3,O=C(Nc1ccc(N2CCN(C(=O)c3cccs3)CC2)cc1)c1ccccc1Cl,"inconclusive [inhibitor, partial curve, poor fit]"
4,O=C(CSc1nnc2n1CCCCC2)Nc1ccc(N2CCOCC2)cc1,inactive
5,O=S1(=O)Nc2c(ccc3cccnc23)-c2ccccc21,active: 2.62 µM
6,Cc1ccc(-c2csc(-c3c[nH]c4ccccc34)n2)c(C)c1,inactive
7,Oc1[nH]c2ccccc2c1N=NC(=S)NCC1CCCO1 (stereo not drawn),"inconclusive [inhibitor, single point]"
8,Cc1cccc(-n2cnc(C(=O)NC3CCCCCC3)c2)n1,inactive
9,O=c1c2c([nH]n1-c1ccccc1)CCCC2,inactive
10,Cc1ccc(C(=O)NCC(=O)OCc2csc(-c3ccccc3)n2)cc1,inactive
11,CCOC(=O)N1CCN(C(=O)c2cccc(S(=O)(=O)Nc3ccc(Br)cc3)c2)CC1,"inconclusive [inhibitor, single point]"
12,Cc1ccccc1OCC(O)Cn1c(NCc2ccco2)nc2c1c(=O)n(C)c(=O)n2C (stereo not drawn),active: 14.7 µM
13,CCCOc1cccc(-c2cc(C(=O)N/N=C/c3ccccn3)c3ccccc3n2)c1,active: 11.7 µM
14,O=C(NCCCCCCNC(=O)c1cccs1)c1cccs1,inactive
15,Cc1ncc([N+](=O)[O-])n1CCOC(=O)NC(NCc1ccccc1)C(Cl)(Cl)Cl (stereo not drawn),active: 8.28 µM
16,O=C(NC1CCCC1)C1CCC(CNS(=O)(=O)c2cccs2)CC1 (stereo not drawn),"inconclusive [inhibitor, single point]"
17,COC(=O)C1=C(C)N(Cc2ccccc2)C(=NCC(C)C)N[C@H]1c1ccccc1,"inconclusive [inhibitor, full curve, poor fit]"
18,Cc1c(Cl)cccc1NC(=S)NCc1cccn1C,inactive
19,CCS(=O)(=O)c1nc(S(=O)(=O)c2ccc(Cl)cc2)c(N2CCc3ccccc3C2)s1,active: 9.28 µM
20,Cc1cc(C)cc(NC(=O)C2CCN(S(=O)(=O)c3ccc4c(c3)NC(=O)C(C)S4)CC2)c1 (stereo not drawn),"inconclusive [inhibitor, single point]"
21,CC1=C(C(=O)Nc2ccc([N+](=O)[O-])cc2)C(c2cccc(C(F)(F)F)c2)NC(=S)N1c1ccccc1 (stereo not drawn),active: 13.1 µM
22,CCOc1ccc(N2C(=O)CC(N3CCC(NC(=O)Nc4ccccc4)CC3)C2=O)cc1 (stereo not drawn),"inconclusive [inhibitor, full curve, poor fit]"

row,Structure (SMILES),Potency
1,CC(NC(=O)c1ccc(OC2CCN(Cc3ccccn3)CC2)cc1)c1ccccc1 (stereo not drawn),"inconclusive [inhibitor, partial curve, poor fit]"
2,O=C(NC(NCC1CCCO1)C(Cl)(Cl)Cl)c1cccc2ccccc12 (stereo not drawn),"inconclusive [inhibitor, single point]"
3,O=C(O)CN1C(=O)/C(=C\C(Br)=C\c2ccccc2)SC1=S,"inconclusive [inhibitor, partial curve, poor fit]"
4,COc1ccc(C(=O)OCC(=O)NC23CC4CC(CC(C4)C2)C3)c(OC)c1OC,"inconclusive [inhibitor, partial curve]"
5,O=C(Oc1ccccc1C(=O)Oc1ccccc1)c1cccnc1,"inconclusive [inhibitor, single point]"
6,CCOC(=O)C1(CC2CC2)CCN(C(=O)c2cc(C)nc3ccc(CC)cc23)CC1,"inconclusive [inhibitor, partial curve]"
7,CC(C)C(=O)N1CCN(c2nc3ccc(Cl)cc3s2)CC1,inactive
8,COc1ccc(C)cc1Nc1nc(-c2c(C)[nH]c3ccccc23)cs1,"inconclusive [inhibitor, single point]"
9,CCSc1nc2ccccc2n1C(=O)/C=C\c1ccc(OC)c(OC)c1,"inconclusive [inhibitor, single point]"
10,CCSc1nnc(NC(=O)c2ccccn2)s1,active: 2.94 µM
11,CCC(C)C(=O)Nc1nc(-c2ccc3c(c2)NC(=O)CO3)cs1 (stereo not drawn),"inconclusive [inhibitor, single point]"
12,CCOc1cc(CNCCSc2nnnn2C)cc(Br)c1OCc1ccc(F)cc1,"inconclusive [inhibitor, single point]"
13,O=C(COc1ccc(Cl)cc1)Nc1ncc([N+](=O)[O-])s1,inactive
14,COc1nc(N2CCCCCC2)nc(N2CCCCCC2)n1,inactive
15,COc1ccc([C@@H]2[C@@H]3C(=O)N(C(C)(C)C)C(=O)[C@@H]3[C@]3(CC(C)C)C(=O)N(c4ccccc4)C(=O)N23)cc1,"inconclusive [inhibitor, partial curve]"
16,C#CCOCCOCCOCCNc1nc(N2CCN(C(=O)CCCCCCCCCCNC(=O)[C@H]([C@@H](C)CC)n3cc(CCCCN=C(N)N)nn3)CC2)nc(N2CCN(C(=O)CCCCCCCCCCNC(=O)[C@H](CO)n3cc(CCCSC)nn3)CC2)n1,active: 0.329 µM
17,O=C(CCc1ccccc1)NC1C2CC3CC(C2)CC1C3 (stereo not drawn),"inconclusive [inhibitor, partial curve, poor fit]"
18,O=C(c1ccc(Cl)cc1)N1CCC(C(=O)N2CCCc3ccccc32)CC1,inactive
19,CCn1nnnc1SCC(=O)N1c2ccccc2Sc2ccccc21,"inconclusive [inhibitor, partial curve, poor fit]"
20,CCOC(=O)[C@H]1[C@H]2COc3ccc(Br)cc3[C@@H]2N2C(=O)CN(Cc3ccco3)C(=O)[C@@]12C,"inconclusive [inhibitor, partial curve]"
21,Oc1ccc(-c2nc3ccccc3nc2-c2ccccc2)cc1,"inconclusive [inhibitor, partial curve, poor fit]"
